{
  "source": "PubChem BioAssay AID1030",
  "about": "(National Center for Advancing Translational Sciences (NCATS), 2008)",
  "note": "Out of some 220,000 compounds screened, about 16,000 (7.3%) were called active. Inconclusive results, whose numbers are uncertain, are shown with a selection of clear calls. Calls come from the whole dose curve; as a rule, active = well fitted inhibition curve with a large enough effect (not every such curve was filed as active); inconclusive = small, poorly fitted or top-dose-only effect, or another doubt; inactive = no such curve, though single readings can be large or run the other way. No potency is given beside an inconclusive call; the fits are too rough. Potency is the fitted concentration of half-maximal effect; tags give direction and shape of the fitted curve.",
  "data": [
    {"target": "Aldehyde dehydrogenase 1A1 (Homo sapiens) (UniProt P00352)", "sequence (P00352 whole entry, looked up)": "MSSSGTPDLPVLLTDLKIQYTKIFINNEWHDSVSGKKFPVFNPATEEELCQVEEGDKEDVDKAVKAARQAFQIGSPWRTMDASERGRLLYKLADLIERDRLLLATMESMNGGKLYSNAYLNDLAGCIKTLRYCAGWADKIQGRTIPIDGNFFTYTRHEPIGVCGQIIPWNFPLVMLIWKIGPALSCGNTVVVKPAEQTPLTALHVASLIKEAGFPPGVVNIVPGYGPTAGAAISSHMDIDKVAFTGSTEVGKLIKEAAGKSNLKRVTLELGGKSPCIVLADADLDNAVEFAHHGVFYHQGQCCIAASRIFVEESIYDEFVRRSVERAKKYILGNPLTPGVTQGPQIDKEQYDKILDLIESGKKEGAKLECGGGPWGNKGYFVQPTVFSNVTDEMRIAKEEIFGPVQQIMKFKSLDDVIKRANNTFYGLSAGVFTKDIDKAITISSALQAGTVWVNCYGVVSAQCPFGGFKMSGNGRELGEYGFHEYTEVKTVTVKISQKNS", "experiment": "qHTS Assay for Inhibitors of Aldehyde Dehydrogenase 1 (ALDH1A1);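 for activity, negative = inhibition: plate controls were no enzyme wells and a reference inhibitor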", "details": "Purified ALDH1A1, NADH fluorescence, propionaldehyde substrate; series mostly up to 75.3 µM; activity, negative = inhibition: at the top concentration", "values": [
      {"smiles": "CC(C)C[C@@H](CC(=O)N[C@@H](CCC(=O)O)CC(=O)O)NC(=O)[C@@H]1CCCC[C@H]1NC(=O)C[C@H](CCCN)NC(=O)C[C@H](CO)NC(=O)[C@@H]1CCCC[C@H]1N", "activity, negative = inhibition": "inactive: -2.75%"},
      {"smiles": "COc1ncc2nc(-c3cc(F)cc(F)c3)c(=O)n(-c3ccccc3)c2n1", "activity, negative = inhibition": "inactive: -8.56%"},
      {"smiles": "COc1ccc(O)c(C(=O)c2cnn(C(=O)c3cccc(S(=O)(=O)N4CCOCC4)c3)c2)c1", "Potency": "inconclusive [inhibitor, partial curve]"},
      {"smiles": "Cn1c(=O)c2cn(-c3cccc4ccccc34)cc2n(C)c1=O", "Potency": "inconclusive [inhibitor, single point]"},
      {"smiles": "Cc1ccc2nc(-c3ccc(NC(=O)CN4CCN(C(=O)c5ccco5)CC4)cc3)sc2c1", "Potency": "inconclusive [inhibitor, partial curve]"},
      {"smiles": "Cc1cc(C)cc(NC(=O)c2nccnc2C(=O)O)c1", "Potency": "inconclusive [inhibitor, single point]"},
      {"smiles": "O=C(c1cn(-c2ccccc2)nc1-c1cccs1)N1CCOCC1", "activity, negative = inhibition": "inactive: -9.98%"},
      {"smiles": "Cn1nc(-c2ccccc2)c(CN2CCN(c3ncccn3)CC2)c1Cl", "activity, negative = inhibition": "inactive: 0.91%"},
      {"smiles": "CC1(c2ccccc2)CC(C)(C)N2C(=O)C(=O)c3cccc1c32", "note": "(stereo not given)", "Potency": "active: 0.501 µM"},
      {"smiles": "Cc1ccc2nc(SCC(=O)NCc3ccco3)c(C)cc2c1", "Potency": "active: 15.8 µM"},
      {"smiles": "CC(=O)NNc1ncnc2ccccc12", "activity, negative = inhibition": "inactive: -15.6%"},
      {"smiles": "COc1ccc(/C(O)=C2\\C(=O)C(=O)N(CCN(C)C)C2c2cccc(OC)c2OC)cc1Cl", "note": "(stereo not given)", "Potency": "inconclusive [inhibitor, single point]"},
      {"smiles": "O=C(N/N=C/c1ccc(Br)cc1)c1cc[n+](Cc2ccccc2)cc1", "Potency": "inconclusive [inhibitor, single point]"},
      {"smiles": "CCOC(=O)CCN1C(=O)[C@H]2[C@H]3[C@H](O)[C@H](O)C/C(=N/OC/C=C(\\C)CCC=C(C)C)[C@@H]3CC[C@@H]2C1=O", "activity, negative = inhibition": "inactive: 6.81% [at 13.5 µM]"},
      {"smiles": "C/C(CC(=O)NC12CC3CC(CC(C3)C1)C2)=N\\NC(=O)Cc1cccs1", "Potency": "active: 8.91 µM"},
      {"smiles": "COc1ccc2cc(C#N)c(NC(C)C)nc2c1", "Potency": "inconclusive [inhibitor, partial curve]"},
      {"smiles": "CC1(C)Cc2c(sc(NC(=O)c3ccco3)c2C(=O)O)CO1", "Potency": "inconclusive [inhibitor, single point]"},
      {"smiles": "Cc1nn2cc(-c3ccccc3)nc2s1", "activity, negative = inhibition": "inactive: 5.02%"},
      {"smiles": "COc1ccc2cc(CN(Cc3cccnc3)Cc3nnnn3Cc3ccccc3)c(=O)[nH]c2c1", "Potency": "active: 8.91 µM"},
      {"smiles": "O=[N+]([O-])c1ccc(NC(=S)NCC(c2cccnc2)N2CCOCC2)cc1", "note": "(stereo not given)", "Potency": "inconclusive [inhibitor, single point]"}
    ]}
  ]
}
